Screen size: about 2,100 compounds; about 320 (15%) were called active. The shares of active, inactive and inconclusive entries below differ from those in the screen. Calls come from the whole dose curve; as a rule, active = well fitted cell-killing curve with a large enough effect; inconclusive = small, poorly fitted or top-dose-only effect, or effect the other way; inactive = flat fitted curve, though single readings scatter. A potency beside an inconclusive call is a rough fit, not a confirmed value.
Assay: Viability Counterscreen for CMV-Luciferase Assay of Inhibitors of ATXN expression; note: nearly all actives have a fitted effect of over 55% in size
Details: HEK-293 CMV-luciferase cells viability, protease fluorescence, 24 h; activity change, negative = cytotoxicity: at the top concentration
How it was run: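 Cells: HEK-293/CMV-luc in phenol-red-free DMEM, 2 hr settle. Cpd dose, 24 hr, 37 °C, 5% CO2. Viability: Gly-Phe-AFC 25 uM final, 30 min, fluor. Then SteadyGlo, 5 min RT, lumin.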
% is set by controls: 0 for no effect and ±100 for the full control effect; potency is the fitted concentration of half-maximal effect; tags give direction and shape of the fitted curve.

Row | Compound | Potency | activity change, negative = cytotoxicity
1 | O=C(N/N=C\c1cccnc1)c1cc(-c2ccccc2)nc2c(Cl)cccc12 | inconclusive: 10 µM [cytotoxic, partial curve, poor fit] | 
2 | O=C(CNC(=O)c1ccccc1)N/N=C/c1cc(Br)ccc1O | inconclusive: 3.55 µM [cytotoxic, full curve, poor fit] | 
3 | Cc1cc(O)c(C)c(O)c1/C=N/NC(=O)c1cccnc1 | inconclusive: 8.91 µM [cytotoxic, full curve] | 
4 | COc1cc(Br)cc(/C=N/NC(=O)Cc2ccc(C(F)(F)F)cc2[N+](=O)[O-])c1O |  | inactive: -26.5% [at 57.5 µM]
5 | CCSc1ccc(-c2cc(NC=O)c3ncc(-c4cccc(C(=O)NCCN(C)C)c4)n3c2)cc1 | inconclusive: 3.98 µM [cytotoxic, single point] | 
6 | CC[C@]12c3[nH]c4ccc(Cl)cc4c3CCN1C(=O)[C@@H](CC(=O)NCC13CC4CC(CC(C4)C1)C3)C[C@@H]2C(=O)N1CCN(C(=O)C2CC2)CC1 | active: 22.4 µM | 
7 | Cn1c(SCC(=O)N/N=C/c2ccc([N+](=O)[O-])s2)nnc1-c1ccccc1 | active: 20 µM | 
8 | Cc1cc(C)n(CC(O)Cn2c3ccc(Cl)cc3c3cc(Cl)ccc32)c(=O)n1 (centres undefined) |  | inactive: -19.8%
9 | N=c1c2c(n(Cc3cccc(Cl)c3)c3c1CCC3)CCCC2 | inconclusive: 10 µM [cytotoxic, partial curve, poor fit] | 
10 | COc1ccc(C(=O)Nc2nc(-c3ccc(S(=O)(=O)N4CCOCC4)cc3)cs2)cc1 |  | inactive: -23.6%
11 | Cc1cccc(/C=N/NC(=O)c2c(-c3ccccc3)noc2C)c1O |  | inactive: -27.5%
12 | CC(C)N(Cc1ccccc1)C(=O)/C=C/c1ccccc1[N+](=O)[O-] |  | inactive: -9.06% [at 57.5 µM]
13 | COc1cc(/C=C/CN2CCC(C(=O)NC(c3ccc(F)cc3)c3ccc4ccccc4n3)CC2)ccc1OC(C)=O (centres undefined) | inconclusive: 14.1 µM [cytotoxic, partial curve, poor fit] | 
14 | C/C(=N\NC(=O)Cc1ccc(Cl)cc1)c1ccccc1O | inconclusive: 17.8 µM [cytotoxic, single point] | 
15 | COc1ccc(Oc2c(Cl)cnn(-c3ccccc3)c2=O)cc1 | inconclusive: 3.55 µM [cytotoxic, single point] | 
16 | CCCCCCc1cc2cc(S(=O)(=O)c3ccc(C)cc3)c(=O)oc2cc1O | inconclusive: 4.47 µM [rising, partial curve] | 
17 | CC1CC(C)CN(CCCNC(=O)c2cc3c(s2)-c2ccccc2OC3)C1 (centres undefined) |  | inactive: -13.8%
18 | O=C(C1CCC(CNS(=O)(=O)c2cccc3nsnc23)CC1)N1CC=C(c2ccccc2)CC1 (centres undefined) |  | inactive: 7.33%
19 | CCOC(=O)C(=CNc1ccc2c(c1)nnn2-c1ccc(Cl)cc1)C(=O)OCC | inconclusive: 25.1 µM [cytotoxic, single point] | 
20 | CCN(c1ccccc1)S(=O)(=O)c1ccc(C(=O)N(CCCN(C)C)c2nc3c(C)cccc3s2)cc1 | active: 28.2 µM | 
21 | Nc1ccc2cc3[nH]c4cc(N)ccc4c3nc2c1 | inconclusive: 3.98 µM [rising, partial curve] | 
22 | CC[n+]1c(/C=C/c2c[nH]c3ccccc23)ccc2cc(C)ccc21 | active: 12.6 µM | 
23 | O=C(Nc1ccccc1C(=O)Nc1nnc(C(F)(F)F)s1)c1ccccc1Cl | inconclusive: 7.94 µM [cytotoxic, full curve, poor fit] | 

Row | Compound | Potency | activity change, negative = cytotoxicity
24 | Cc1cc(SCC(=O)N/N=C/c2ccc(O)cc2O)nc2ccccc12 | active: 12.6 µM | 
25 | CC(C)[C@H](CO)Nc1nc(NCc2ccc(S(N)(=O)=O)cc2)c2ncn(C(C)C)c2n1 | inconclusive: 3.16 µM [cytotoxic, single point] | 
26 | CCN(CC)CCNC(=O)c1ccc(NC(=O)c2ccccc2-c2ccc(C(F)(F)F)cc2)cc1 |  | inactive: -22.9% [at 57.5 µM]
27 | COc1ccc(/C=C2/CSC/C(=C/c3ccc(OC)c(OC)c3)C2=O)cc1OC | inconclusive: 8.91 µM [cytotoxic, full curve, poor fit] | 
28 | O=C(c1ccc2c(c1)OCO2)N(Cc1cccs1)C1(C(=O)NC2CCCCC2)CCCCC1 | inconclusive: 10 µM [cytotoxic, partial curve, poor fit] | 
29 | O=C(CCc1ccccc1)NC(c1cccs1)c1cc(Cl)c2cccnc2c1O (centres undefined) | inconclusive: 2.24 µM [cytotoxic, partial curve, poor fit] | 
30 | CCC(C)(C)c1ccc(OCCCC[n+]2ccccc2)c(C(C)(C)CC)c1 |  | inactive: -7.4%
31 | COc1ccc(C2CC(c3ccc(C(F)(F)F)cc3)=NN2c2ccc(S(N)(=O)=O)cc2)cc1 (centres undefined) | inconclusive: 31.6 µM [rising, partial curve] | 
32 | C/C(=N\N=C(N)N)c1ccc(Cl)cc1Cl |  | inactive: -11.9% [at 57.5 µM]
33 | COc1ccccc1N(CC(=O)N/N=C/c1c(O)ccc2ccccc12)S(C)(=O)=O | inconclusive: 4.47 µM [cytotoxic, partial curve, poor fit] | 
34 | COC(=O)C(Cc1ccc(O)cc1)NC(=O)C(C)Oc1ccccc1 (centres undefined) |  | inactive: -14.5% [at 57.5 µM]
35 | CN1CCN(C(c2ccc(C(F)(F)F)cc2)c2ccc3cccnc3c2O)CC1 (centres undefined) | inconclusive: 3.55 µM [cytotoxic, full curve, poor fit] | 
36 | COc1ccc(NC(=O)c2cc(-c3cc(Cl)ccc3OC)n[nH]2)cc1OC | active: 0.398 µM | 
37 | CCN(C(=O)c1cc2c(C)nc3ccccc3c2o1)c1cc(Cl)ccc1OC | inconclusive: 14.1 µM [cytotoxic, partial curve, poor fit] | 
38 | CCN1C(=O)/C(=C/c2nc3ccccc3c(=O)n2-c2ccccc2)c2ccccc21 | active: 12.6 µM | 
39 | O=S(=O)(c1cccs1)N1CCN(c2ccnc3cc(Cl)ccc23)CC1 | inconclusive: 25.1 µM [cytotoxic, partial curve, poor fit] | 
40 | COc1cccc(/C=N/n2c(N)c(S(=O)(=O)c3cccs3)c3nc4ccccc4nc32)c1OC | active: 14.1 µM | 
41 | Cc1cc(C(=O)N/N=C/c2cc(Br)ccc2OC(=O)c2ccccc2Cl)n[nH]1 | inconclusive: 5.01 µM [cytotoxic, full curve] | 
42 | COc1cccc(CC(=O)Nc2nc(-c3ccc(OC)c(OC)c3)cs2)c1 | active: 28.2 µM | 
43 | CCCCNCCCOc1cccc(Cl)c1Cl |  | inactive: -25.7% [at 57.5 µM]
44 | Cn1c(/C=C/c2cccc([N+](=O)[O-])c2)c([N+](=O)[O-])c(=O)n(C)c1=O | active: 14.1 µM | 
45 | Cc1ccc2nc(-c3ccccn3)c(NC3CCCC3)n2c1 | inconclusive: 2.82 µM [cytotoxic, partial curve, poor fit] | 
46 | Cc1cc(/C=N/n2cnnc2)c(C)n1-c1ccc(OCc2ccc(F)cc2)cc1 | inconclusive: 11.2 µM [cytotoxic, partial curve, poor fit] | 

Row | Compound | Potency | activity change, negative = cytotoxicity
47 | CCOC(=O)c1c(NC(=O)COC(=O)CNC(=O)c2ccco2)sc(C)c1C |  | inactive: 14.2%
48 | COc1ccc(CC(=O)N/N=C(\C)c2ccccn2)cc1 | active: 11.2 µM | 
49 | Cc1ccc(NC(=O)CSc2n[nH]c(-c3ccccn3)n2)cc1 | inconclusive: 3.16 µM [cytotoxic, single point] | 
50 | CCCCc1ccc(N/C(N)=N/c2nc(C)cc(C)n2)cc1 | inconclusive: 8.91 µM [cytotoxic, single point] | 
51 | CN(C)c1ccccc1-c1cc(NC=O)c2ncc(-c3cccc(C(F)(F)F)c3)n2c1 | inconclusive: 4.47 µM [rising, partial curve] | 
52 | CCC(=O)NC(c1ccc(OC)cc1)c1cc(Cl)c2cccnc2c1O (centres undefined) | inconclusive: 3.55 µM [cytotoxic, single point] | 
53 | O=[N+]([O-])c1ccccc1S(=O)c1ccccc1[N+](=O)[O-] | inconclusive: 11.2 µM [cytotoxic, partial curve, poor fit] | 
54 | O=c1c2ccc(Cl)cc2nc(-c2cccc(C(F)(F)F)c2)n1O | active: 10 µM | 
55 | CC[C@@]1(O)C(=O)OCc2c1cc1n(c2=O)Cc2cc3c(CN(C)C)c(O)ccc3nc2-1 | inconclusive: 28.2 µM [rising, partial curve] | 
56 | CN(C)CCCN(C(=O)c1ccc(S(=O)(=O)N2CCCC2)cc1)c1nc2ccc(Br)cc2s1 | active: 31.6 µM | 
57 | NNC(=O)c1sc2cc(C(F)(F)F)cnc2c1-c1cccs1 |  | inactive: -26.2% [at 57.5 µM]
58 | CCN(CC)c1ccc(C(=O)N/N=C/c2ccccc2OC(F)F)cc1 |  | inactive: -26.8%
59 | Cc1nn(-c2ccccc2)c2nc(-c3cccs3)cc(C(=O)NN)c12 |  | inactive: -5.3% [at 57.5 µM]
60 | Cc1cccc(/C=N/NC(=O)c2cccc(Cl)c2)n1 |  | inactive: -7.6%
61 | COc1cc(C#Cc2c(-c3cncn3C)n(C)c3ccc(-c4ccc(CN5CCOCC5)cc4)cc23)cc(OC)c1 |  | inactive: 3.5%
62 | Cc1ccc(C(=O)CN2C(=O)c3ccccc3S2(=O)=O)cc1 |  | inactive: 1.75%
63 | O=C(Cn1nc2ccccc2n1)N/N=C/c1cc([N+](=O)[O-])ccc1O | inconclusive: 3.16 µM [cytotoxic, single point] | 
64 | O=C(Nc1ccccc1N1CCN(C(=O)c2ccccc2)CC1)c1ccc(Br)o1 | inconclusive: 12.6 µM [cytotoxic, partial curve, poor fit] | 
65 | CC(C)CC(N)c1csc(Nc2ccc(C(=O)N(C)Cc3ccccc3)cn2)n1 (centres undefined) | inconclusive: 2.82 µM [cytotoxic, full curve] | 
66 | COc1nn(-c2ccccc2)c(=O)c(Cl)c1Cl | inconclusive: 3.55 µM [cytotoxic, single point] | 
67 | COc1cccc2c1C1COC3C4CC(C(=O)O)C(C(C2)N13)N4C (centres undefined) | inconclusive: 11.2 µM [cytotoxic, partial curve] | 
68 | OC(c1cc(-c2cccc(Cl)c2)nc2ccccc12)C1CCCCN1 (centres undefined) | active: 17.8 µM | 
69 | Cc1ccc(S(=O)(=O)c2c(N)n(CC3CCOC3)c3nc4ccccc4nc23)cc1 (centres undefined) |  | inactive: -8.96%

From PubChem BioAssay AID1745849 (National Center for Advancing Translational Sciences (NCATS), 2022)
